{"source": "PubChem BioAssay (NCATS)", "note": "Inconclusive results, whose numbers are uncertain, are shown with a selection of clear calls. Potencies of inconclusive entries are doubtful fits and often do not repeat. Calls of active or inactive are those of the source. The call rests on the fitted dose curve; in most records, active means well fitted cell-killing curve with a large enough effect; inconclusive means small, poorly fitted or top-dose-only effect, or effect the other way; inactive means no such curve, though single readings can be large or run the other way. Potency means the concentration at half of the fitted maximal effect; tags describe the fitted curve by direction and shape.", "data": [{"assay": "Viability qHTS for spleen associated tyrosine kinase inhibitor (SYKi) naive MV4-11 cells (AID 1963823); further: nearly all actives have a fitted effect of over 40% in size", "conditions": "MV4-11 AML viability, CellTiter-Glo luminescence, 72 h; series mostly up to 45 µM", "outline": "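SYKi-naive MV4-11 AML cells, 500 per well, were exposed to library compounds for 72 hr at 37 C, 5% CO2. Viability was then read by CellTiter-Glo luminescence after 10 min at room temperature.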", "values": [{"smiles": "COc1ccc(Sc2ccc(NC(=O)c3ccccc3Cl)cc2C#N)cc1", "Potency": "inconclusive: 29.1 µM [cytotoxic, single point]"}, {"smiles": "CN1CCN(C(=O)c2ccc(Nc3nccc(-c4cccs4)n3)cc2Cl)CC1", "Potency": "active: 0.731 µM"}, {"smiles": "CC(C)c1cc2c(c(O)c1O)[C@@]13CCCC(C)(C)C1[C@@H](O)[C@@H]2OC3=O", "note": "(stereo partly drawn)", "Potency": "active: 4.53 µM"}, {"smiles": "C=C1CC[C@@H]2[C@](C)(CO)[C@H](O)CC[C@@]2(C)[C@@H]1/C=C/C1=CCOC1=O", "Potency": "inactive"}, {"smiles": "CC1=C(C)C(=O)OC(C(C)C2C(O)CC3C4C5OC5C5(O)CC(OC6OC(CO)C(OC7OC(C)C(O)C(O)C7O)C(O)C6O)CC(O)C5(C)C4CCC32C)C1", "note": "(stereo not drawn)", "Potency": "inconclusive: 1.93 µM [cytotoxic, single point]"}, {"smiles": "CN(C)CCCNc1c2ccccc2nc2c1[nH]c1ccccc12", "Potency": "inconclusive: 0.651 µM [cytotoxic, full curve]"}, {"smiles": "Cc1cc(F)c(Nc2ncnc3cc(OCc4ccccc4)ccc23)cc1O", "Potency": "inconclusive: 9.2 µM [cytotoxic, partial curve]"}, {"smiles": "CC(C)c1nc(-c2ccc(NC(=O)Nc3cccc(C(F)(F)F)c3)c3ccccc23)c2c(N)nccn12", "Potency": "active: 0.366 µM"}, {"smiles": "O=C(O)[C@H](O)c1ccccc1", "Potency": "inactive"}, {"smiles": "COc1ccc(NC(=O)N2CCc3c2ccc2ccccc32)cc1N1CCN(C)CC1", "Potency": "active: 9.2 µM"}, {"smiles": "C[C@@H]1O[C@@H](OC[C@H]2O[C@@H](OCCc3ccccc3)[C@H](O)[C@@H](O)[C@@H]2O)[C@H](O)[C@H](O)[C@H]1O", "Potency": "inactive"}, {"smiles": "CC1=C(CO)C2(C)CCCC(C)(C)C2C(O)C1O", "note": "(stereo not drawn)", "Potency": "inconclusive: 1.64 µM [cytotoxic, full curve, poor fit]"}, {"smiles": "CC(C)=CCC(O)/C(C)=C/CO[C@@H]1O[C@H](CO)[C@@H](O)[C@H](O)[C@H]1O", "note": "(stereo partly drawn)", "Potency": "inactive"}, {"smiles": "CCCC(CCC)C(=O)NCc1ccc2c(cnn2-c2ccccc2OC)c1", "Potency": "active: 10.3 µM"}, {"smiles": "CS(=O)(=O)c1ccc([C@@H](C[C@H]2CCC(=O)C2)C(=O)Nc2cnccn2)cc1Cl", "Potency": "active: 15.8 µM"}, {"smiles": "O=C(/C=C/c1ccc(CN(CCO)CCc2c[nH]c3ccccc23)cc1)NO", "Potency": "active: 0.0742 µM"}, {"smiles": "CCN1CCCC1=O", "Potency": "inactive"}, {"smiles": "Cc1cc(C)c2nc(-c3ccccn3)cc(C(=O)Nc3ccc(S(=O)(=O)Nc4onc(C)c4C)cc3)c2c1", "Potency": "inconclusive: 29.1 µM [cytotoxic, single point]"}, {"smiles": "Cn1nccc1-c1ccccc1Oc1ccc(S(=O)(=O)Nc2nccs2)cc1C#N", "Potency": "inconclusive: 23.1 µM [cytotoxic, single point]"}, {"smiles": "CCNc1nc(Nc2cc(F)c(C(=O)N3CCOCC3)cc2OC)ncc1C(F)(F)F", "Potency": "inconclusive: 4.11 µM [cytotoxic, full curve]"}, {"smiles": "OC[C@@]1(O)CO[C@H](OC[C@H]2O[C@@H](OC(CCCCc3ccc(O)cc3)CCc3ccc(O)cc3)[C@H](O[C@H]3OC[C@](O)(CO)[C@H]3O)[C@@H](O)[C@@H]2O)[C@@H]1O", "note": "(stereo partly drawn)", "Potency": "inactive"}, {"smiles": "N#Cc1ccc2[nH]cc(CCCCN3CCN(c4ccc5oc(C(N)=O)cc5c4)CC3)c2c1", "Potency": "active: 11.6 µM"}, {"smiles": "CC(O)C(=O)O", "note": "(stereo not drawn)", "Potency": "inactive"}, {"smiles": "O=C1CCc2cc(S(=O)(=O)Nc3cccc(Cl)c3)ccc2N1", "Potency": "inconclusive: 16.4 µM [cytotoxic, partial curve, poor fit]"}, {"smiles": "Cc1cc(NC(=O)Nc2ccc(F)c(F)c2)n(-c2ccccc2)n1", "Potency": "inconclusive: 8.2 µM [cytotoxic, partial curve, poor fit]"}, {"smiles": "C=C1CC2C(C)(CCC(=O)O)C(C(C)(C)O)CCC2(C)C2C(=O)OC(C)(C(=O)OC)C(=O)C12C", "note": "(stereo not drawn)", "Potency": "inconclusive: 0.008 µM [cytotoxic, full curve, poor fit]"}, {"smiles": "O=C(NCCN1CCOCC1)c1cc2c(Oc3ccc(NC(=O)C4(C(=O)Nc5ccc(F)cc5)CC4)cc3)ccnc2[nH]1", "Potency": "active: 0.0259 µM"}, {"smiles": "O=C1NC2CCc3nc4ccccc4c(=O)n3C2=Nc2ccccc21", "note": "(stereo not drawn)", "Potency": "inactive"}]}]}
